# Inconclusive means that the source gave no clear call. Such entries were picked first, then a sample of the others. For some assays here: Potencies of inconclusive entries are left out as doubtful fits. Active and inactive are the calls of the source. Unless noted, calls follow the shape of the dose curve; as a rule, active = well fitted curve in the direction sought with a large enough effect; inconclusive = small, poorly fitted or top-dose-only effect, or another doubt; inactive = no such curve, though single readings can be large; an effect the other way counts as inactive or inconclusive.
# How the values were obtained:
# [1] = target: Cytochrome P450 2D6 (Homo sapiens) (UniProt P10635); assay: Cytochrome P450 family 2 subfamily D member 6 (CYP2D6) small molecule antagonists: luciferase biochemical (cell-free) qHTS assay (AID 1645840; active = well fitted curve in the direction sought with a large enough effect in the repeat runs; inconclusive = weak or mixed curves; inactive = no such curve, though single readings can be large; an effect the other way counts as inactive or inconclusive; also: nearly all actives have a fitted effect of over 55% in size; as to activity change, negative = inhibition: % is scaled to controls: 0 for no effect and ±100 for the full control effect)
# Sequence of UniProt P10635 (P10635 whole entry, looked up): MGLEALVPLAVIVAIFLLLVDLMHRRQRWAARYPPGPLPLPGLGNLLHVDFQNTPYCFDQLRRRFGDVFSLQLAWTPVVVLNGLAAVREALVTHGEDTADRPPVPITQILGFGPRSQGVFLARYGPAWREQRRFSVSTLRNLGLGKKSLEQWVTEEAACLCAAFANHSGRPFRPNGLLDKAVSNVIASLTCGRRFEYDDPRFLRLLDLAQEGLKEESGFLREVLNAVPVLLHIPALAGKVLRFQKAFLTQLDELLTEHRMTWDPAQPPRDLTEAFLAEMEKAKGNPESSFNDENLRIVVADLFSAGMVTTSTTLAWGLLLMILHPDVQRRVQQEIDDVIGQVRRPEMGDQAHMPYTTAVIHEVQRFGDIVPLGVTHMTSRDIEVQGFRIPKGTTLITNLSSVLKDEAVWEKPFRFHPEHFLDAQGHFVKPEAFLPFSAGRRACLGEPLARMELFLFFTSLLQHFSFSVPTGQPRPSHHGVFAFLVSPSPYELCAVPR
# Procedure, shortened: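 P450-Glo CYP2D6 system: proluciferin substrate converted by enzyme to luciferin, read by luminescence proportional to activity. Enzyme-substrate mix with compound 10 min at room temperature, then NADPH regeneration 1 h before detection reagent.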
# [2] = qHTS assay to identify inhibitors of the type 1 interferon - major histocompatibility complex class I in skeletal muscle: Counter screen cell viability and HiBit confirmation (AID 1347412); details: iHSKM muscle cells + IFN-b, HiBiT or CellTiter-Glo, 24 h; also: nearly all actives have a fitted effect of over 60% in size; as to activity change, negative = inhibition: % is scaled to controls: 0 for no effect and ±100 for the full control effect
# Procedure, shortened: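 After 24 h with human IFN-beta (4 ng/ml) and compound titrations (top 46 uM final, 1:3, 12 points), HLA-B HiBit myoblasts were lysed for either Nano-Glo HiBiT luminescence or CellTiter Glo viability on paired plates.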
# [3] = Primary redox qHTS assay for identification of artifact compounds. (AID 1845223)
# Procedure, shortened: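 Redox-cycling detection via DTT (250 uM final) oxidation coupled to Amplex Red (25 uM)/HRP (250 mU/mL) in HBSS. 15 min preincubation plus 30 min after DTT, room temperature. Ex/Em 525/598 nm; 4-parameter Hill fit against DMSO and 10 uM DA3003.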
# [4] = Primary fluorescence-based thiol-reactive (MSTI) qHTS assay for identification of artifact compounds. (AID 1845221);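 also: thiol-reactive compounds lower the probe fluorescence signal; nearly all actives have a fitted effect of over 65% in size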
# Procedure, shortened: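 Compounds were incubated 1 h at room temperature in the dark with the MSTI probe (4 uM) in PBS pH 7.4, 2% DMSO. Signals were normalized between Acetyl-MSTI and MSTI.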
# [5] = target: Calcium and integrin-binding protein 1 (Homo sapiens) (UniProt Q99828); assay: Primary qHTS for Identification of Calcium Integrin Binding Protein 1 (CIB1) Competitor (AID 1508620);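 as to activity change, negative = inhibition: GST tagged CIB1 binding a fluorescein labelled alphaIIb integrin peptide tracer; top concentration of the series differs between compounds; % is scaled to controls: 0 for no effect and ±100 for the full control effect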
# Sequence of UniProt Q99828 (Q99828 whole entry, looked up): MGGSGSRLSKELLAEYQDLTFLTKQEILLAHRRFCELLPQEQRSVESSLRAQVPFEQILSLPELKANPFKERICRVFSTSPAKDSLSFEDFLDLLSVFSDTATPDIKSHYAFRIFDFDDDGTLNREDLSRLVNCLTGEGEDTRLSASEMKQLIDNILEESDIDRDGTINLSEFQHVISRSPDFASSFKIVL
# Procedure, shortened: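 CIB1-GST (1 uM final) and compound incubated 15 min at room temperature before adding FITC-alphaIIb peptide tracer (100 nM final). Competition for binding read by fluorescence polarization (ex 480, em 540) after another 15 min at room temperature.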
# [6] = target: Phospholipid hydroperoxide glutathione peroxidase GPX4 (Homo sapiens) (UniProt P36969); assay: Primary qHTS Assay for Inhibitors of Recombinant Selenoprotein Glutathione Peroxidase 4 (GPX4) (AID 1845192); also: nearly all actives have a fitted effect of over 65% in size
# Sequence of UniProt P36969 (P36969 whole entry, looked up): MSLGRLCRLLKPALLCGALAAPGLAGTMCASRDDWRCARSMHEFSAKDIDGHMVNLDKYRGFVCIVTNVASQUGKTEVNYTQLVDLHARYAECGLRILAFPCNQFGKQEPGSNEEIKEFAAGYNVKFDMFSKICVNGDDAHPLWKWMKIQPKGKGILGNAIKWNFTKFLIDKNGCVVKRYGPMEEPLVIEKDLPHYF
# Procedure, shortened: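 NADPH consumption followed by fluorescence at 340/450 nm, t=0 and after 15 min at room temperature. Reaction started with cumene hydroperoxide (0.5 mM final) after 30 min compound–GPX4 preincubation; final 200 nM GPX4, 100 nM GR, 1 mM GSH, 0.5 mM NADPH.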
# [7] = target: Cytochrome P450 2C9 (Homo sapiens) (UniProt P11712); assay: Cytochrome P450 family 2 subfamily C member 9 (CYP2C9) small molecule antagonists: luciferase biochemical (cell-free) qHTS assay (AID 1645842; active = well fitted curve in the direction sought with a large enough effect in the repeat runs; inconclusive = weak or mixed curves; inactive = no such curve, though single readings can be large; an effect the other way counts as inactive or inconclusive; also: nearly all actives have a fitted effect of over 55% in size)
# Sequence of UniProt P11712 (P11712 whole entry, looked up): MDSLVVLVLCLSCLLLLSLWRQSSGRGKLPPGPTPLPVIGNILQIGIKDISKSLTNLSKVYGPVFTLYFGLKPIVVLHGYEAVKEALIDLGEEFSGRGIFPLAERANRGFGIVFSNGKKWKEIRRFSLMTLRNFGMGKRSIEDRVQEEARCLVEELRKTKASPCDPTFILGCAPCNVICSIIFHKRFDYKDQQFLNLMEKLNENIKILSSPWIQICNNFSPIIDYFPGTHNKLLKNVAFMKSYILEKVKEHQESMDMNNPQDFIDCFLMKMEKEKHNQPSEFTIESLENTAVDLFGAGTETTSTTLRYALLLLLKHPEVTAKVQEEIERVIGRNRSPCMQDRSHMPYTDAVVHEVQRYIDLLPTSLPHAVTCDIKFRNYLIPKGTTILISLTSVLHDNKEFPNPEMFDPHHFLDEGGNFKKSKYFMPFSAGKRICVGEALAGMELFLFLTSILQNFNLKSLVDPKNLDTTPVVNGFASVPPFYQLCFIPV
# Procedure, shortened: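 P450-Glo CYP2C9 system: proluciferin substrate with enzyme in mix containing 0.4% BSA, 10 min at room temperature, then NADPH regeneration solution added and incubated 1 h at 37C. Detection reagent stopped reaction; luminescence read after 20 min as RLU.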
# [8] = target: Glutathione peroxidase 1 (Homo sapiens) (UniProt P07203); assay: Primary qHTS Assay for Inhibitors of Recombinant Selenoprotein Glutathione Peroxidase 1 (GPX1) (AID 1845191); details: activity, negative = inhibition: at 48.8 µM (top of the series); also: nearly all actives have a fitted effect of over 65% in size
# Sequence of UniProt P07203 (P07203 whole entry, looked up): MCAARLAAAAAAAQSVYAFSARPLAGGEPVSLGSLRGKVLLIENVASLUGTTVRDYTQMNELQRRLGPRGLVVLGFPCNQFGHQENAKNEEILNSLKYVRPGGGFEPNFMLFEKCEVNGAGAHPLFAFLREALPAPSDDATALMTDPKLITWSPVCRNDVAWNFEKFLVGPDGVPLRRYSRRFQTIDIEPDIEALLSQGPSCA
# Procedure, shortened: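 NADPH consumption tracked by fluorescence at 340/450 nm between t=0 and t=15 min, room temperature. Final mix: 10 nM GPX1, 100 nM glutathione reductase, 1 mM GSH, 0.5 mM NADPH, 0.5 mM cumene hydroperoxide, 0.01% BSA; 30 min compound–enzyme preincubation.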
# [9] = tested on: Zika virus NS2B-NS3 protease (linked construct); assay: Primary screen NINDS Rhodamine qHTS for Zika virus inhibitors (AID 1347160); also: nearly all actives have a fitted effect of over 55% in size; as to activity change, negative = inhibition: % is scaled to controls: 0 for no effect and ±100 for the full control effect
# Procedure, shortened: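 Each compound, titrated, sat 15 min with 25 nM linked protease before 1.5 microM Rhodamine110 substrate went in. Fluorescence gain over the next 15 min, in pH 8.0 Tris with Tween 20, gave Hill-fitted curves.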
# [10] = qHTS of pediatric cancer cell lines to identify multiple opportunities for drug repurposing: Primary screen for Rh30 cells (AID 1347107); also: nearly all actives have a fitted effect of over 75% in size
# Procedure, shortened: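 Cells (500-1,000/well) rested 5 h, then received compounds for 48 h; metabolically active cells were measured by CellTiter-Glo luminescence. Final concentrations spanned up to 46 µM (MIPE, 11-point) or 0.59 nM-46 µM (NPC, 8-point) in primary screens, 11-point in follow-ups.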
# WaGa = assay: qHTS assay to identify novel small-molecules to repurpose for Merkel cell carcinoma treatment (AID 1296009); details: MCC and control cell lines, CellTiter-Glo viability, 72 h; series mostly up to 46 µM; also: nearly all actives have a fitted effect of over 60% in size
# Procedure, shortened: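 Cell viability measured by CellTiter-Glo following 72 hr compound treatment at 37 degree celsius, with NPC and MIPE libraries tested in 8- and 11-point concentration series.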
# Potency is read from the fitted curve at half-maximal effect; tags tell the direction and shape of the fitted curve.
smiles,measurement,setting,value
CC(F)(F)CN1CCOc2c(nn(-c3ccccc3Cl)c2-c2ccc(Cl)cc2)C1=O,Potency,[1],active: 13.5 µM
CNC(=O)c1ccc(Nc2ncc(C(F)(F)F)c(NCc3nccnc3N(C)S(C)(=O)=O)n2)cc1,Potency,[2]; HiBiT,active: 3.52 µM
same,"activity change, negative = inhibition","[2]; Viability, at 45.9 µM (top of the series)",inactive: -7.39%
CCc1cccc(CC)c1-n1c(C=C(C)C)c(C(=O)N2CCNCC2)cc(-c2nc(-c3ccc(C(F)(F)F)cc3)cs2)c1=O,Potency,[3],"inconclusive [activator, partial curve, poor fit]"
CC1(C)CCCC2(C)C1C(=O)C=C(C(=O)O)C2(O)C(=O)O (centres undefined),Potency,[4],active: 9.47 µM
same,Potency,[3],"inconclusive [activator, partial curve, poor fit]"
CCn1c(=O)c(-c2ccc(Cl)cc2Cl)cc2cnc(Nc3ccc(N4CCNCC4)c(F)c3)nc21,Potency,[1],"inconclusive [inhibitor, single point]"
CCCCOc1ccc(-c2cncc(C(=O)NCc3cccnc3N3CCOCC3)c2)cc1Cl,Potency,[5],inactive
O=C(c1ccc(F)c(F)c1Nc1ccc(I)cc1F)N1CC(O)([C@@H]2CCCCN2)C1,Potency,[6],"inconclusive [inhibitor, partial curve, poor fit]"
COc1cc2nc(N3CCN(C(=O)COc4c(OC)cccc4C(C)C)CC3)nc(N)c2cc1OC,Potency,[1],"inconclusive [inhibitor, single point]"
same,Potency,[7],"inconclusive [inhibitor, partial curve, poor fit]"
same,Potency,[8],"inconclusive [inhibitor, single point]"
same,Potency,[6],"inconclusive [inhibitor, partial curve]"
same,Potency,[3],inactive
CCn1c(=O)c(-c2ccn[nH]2)cc2c(C)nc(N)nc21,Potency,[1],inactive
same,Potency,[8],active: 4.09 µM
same,Potency,[6],active: 2.55 µM
same,Potency,[2]; HiBiT,"inconclusive [inhibitor, partial curve]"
same,Potency,[2]; Viability,"inconclusive [cytotoxic, partial curve]"
Cc1cc(N=Nc2ccc(S(=O)(=O)Nc3ccccn3)cc2)c(N)cc1O,Potency,[5],"inconclusive [inhibitor, partial curve]"
same,Potency,[6],"inconclusive [inhibitor, partial curve, poor fit]"
same,Potency,[4],active: 0.597 µM
CCC(C)/C=C(C)/C=C/C1=CC2=CC(=O)C3(C)OC(C)(O)C(C(=O)OC)C3C2=CO1 (centres undefined),Potency,[5],inactive
CN(CCCNC(=O)c1ccc2nc3c(c(Cl)c2c1)CCCC3)Cc1ccccc1,Potency,[9],inactive
CC(C)(C)Nc1nc2cc(Cl)c(Cl)cc2nc1S(C)(=O)=O,Potency,[7],active: 5.35 µM
same,Potency,[4],inactive
same,Potency,[3],inactive
CCS(=O)c1nc(-c2cccc(OCc3ccccc3)c2)cc(C(F)(F)F)n1 (centres undefined),Potency,[5],"inconclusive [inhibitor, full curve]"
same,Potency,[1],"inconclusive [inhibitor, single point]"
same,Potency,[6],inactive
C=C(C(=O)OC[C@H]1O[C@@H](OC(=O)/C=C/c2ccccc2)[C@H](O)[C@@H](O)[C@@H]1O)C(O)CO (some centres undefined),Potency,[4],"inconclusive [inhibitor, partial curve]"
Cc1cc2c(cc1N1C(=O)c3cccc4c(CCCO)ccc(c34)C1=O)n(C)c(=O)n2C,Potency,[8],inactive
same,Potency,[3],"inconclusive [activator, partial curve, poor fit]"
CCC/C=C/C=C/C1CC(O)C2(O)C(=O)OCC12 (centres undefined),Potency,[5],inactive
same,Potency,[4],"inconclusive [inhibitor, partial curve]"
same,Potency,[3],"inconclusive [activator, partial curve, poor fit]"
NC(=O)N1CCC(CC(=O)N2CCC(C3c4ncc(Br)cc4CCc4cc(Cl)cc(Br)c43)CC2)CC1 (centres undefined),Potency,[4],"inconclusive [inhibitor, single point]"
O=C(Nc1ccccc1)c1ccc(Nc2nnc(-c3ccc(O)cc3)c3ccccc23)cc1,Potency,[9],"inconclusive [inhibitor, single point]"
CC/C(=C(\c1ccc(O)cc1)c1ccc(OCCNC)cc1)c1ccccc1,Potency,[5],"inconclusive [inhibitor, partial curve, poor fit]"
C/C=C(\C)C(=O)OCC1OC(OC2OC(CO)C(O)C(O)C2O)C(O)C(O)C1O (centres undefined),Potency,[4],"inconclusive [inhibitor, partial curve, poor fit]"
CCS(=O)(=O)N(Cc1cccnc1)c1cccc(-c2ccc(C#N)cc2)c1,Potency,[1],"inconclusive [inhibitor, single point]"
CCCCCCCOc1cc2c(cc1/C(C)=C/c1ccc(C(=O)O)cc1)C(C)(C)CCS2(=O)=O,Potency,[8],"inconclusive [inhibitor, partial curve]"
CN1CCc2cccc3c2[C@H]1Cc1ccc(O)c(O)c1-3,Potency,[10],"inconclusive [cytotoxic, single point]"
same,Potency,WaGa,active: 11.9 µM
